The supplement of paper PMC4967469
IC50 is the fitted dose that halves viability relative to control wells, and lower means more sensitive; a fit beyond the top or the lowest dose is shown as a bound at that dose. AUC is the area under the same curve over the 256-fold range up to the top dose, as a fraction: 1 means no effect, lower means more sensitive.

Compound: Cn1c(=O)n(-c2ccc(C(C)(C)C#N)cc2)c2c3cc(-c4cnc5ccccc5c4)ccc3ncc21 [NVP-BEZ235]
Experiment: Viability of human cancer cell lines after 72 h of drug (GDSC screen)
Method: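 Human cancer cell lines in 384-well plates, medium with 10% serum, drug for 72 h over a 256-fold dose range (nine 2-fold or five 4-fold steps up to the top dose). Adherent lines were fixed and stained with the nucleic acid dye Syto60, suspension lines read with resazurin; signal relative to control wells, capped at 0 and 100%. One two-parameter sigmoid per drug and line, fitted in a mixed model over all curves with the slope shared within a line.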

Cell Line | AUC | IC50 [µM]
KON (head and neck, adherent, top dose 0.25 µM) | 0.419 | 0.00944
LU-134-A (small cell lung carcinoma, suspension, top dose 0.25 µM) | 0.84 | 0.188
HCC1954 (breast, adherent, top dose 0.25 µM) | 0.893 | > 0.25
Hs766T (pancreas, adherent, top dose 0.25 µM) | 0.651 | 0.0472
NB1 (neuroblastoma, semi-adherent, top dose 0.25 µM) | 0.815 | 0.155
RPMI-8866 (chronic myeloid leukaemia, suspension, top dose 0.25 µM) | 0.505 | 0.0162
NCI-H1568 (lung adenocarcinoma, adherent, top dose 0.25 µM) | 0.767 | 0.116
KGN (ovary, adherent, top dose 0.25 µM) | 0.698 | 0.0642
SU-DHL-4 (B-cell lymphoma, suspension, top dose 0.25 µM) | 0.932 | 0.205
ONS-76 (medulloblastoma, adherent, top dose 0.25 µM) | 0.602 | 0.0304
KARPAS-299 (anaplastic large cell lymphoma, suspension, top dose 0.25 µM) | 0.603 | 0.0285
TMK-1 (stomach, adherent, top dose 0.25 µM) | 0.788 | 0.116
HH (T-cell leukaemia, suspension, top dose 0.25 µM) | 0.647 | 0.0459
SNU-81 (large intestine, adherent, top dose 0.25 µM) | 0.73 | 0.0896
ETK-1 (biliary tract, adherent, top dose 0.25 µM) | 0.455 | 0.0116
FTC-133 (thyroid, adherent, top dose 0.25 µM) | 0.572 | 
HDLM-2 (Hodgkin lymphoma, suspension, top dose 0.25 µM) | 0.843 | 0.173
HC-1 (hairy cell leukaemia, suspension, top dose 0.25 µM) | 0.866 | 0.209
LB647-SCLC (small cell lung carcinoma, semi-adherent, top dose 0.25 µM) | 0.812 | 0.154
NCI-H82 (small cell lung carcinoma, suspension, top dose 0.25 µM) | 0.73 | 0.0675
HCC-366 (non-small cell lung carcinoma, adherent, top dose 0.25 µM) | 0.906 | > 0.25
SW13 (adrenal gland, adherent, top dose 2 µM) | 0.39 | 0.0621
H-EMC-SS (chondrosarcoma, adherent, top dose 0.25 µM) | 0.754 | 0.107
MS-1 (small cell lung carcinoma, suspension, top dose 0.25 µM) | 0.845 | 0.153
JJN-3 (haematopoietic neoplasm, suspension, top dose 0.25 µM) | 0.651 | 0.0377
BALL-1 (B-cell leukaemia, suspension, top dose 0.25 µM) | 0.787 | 0.079

Cell Line | AUC | IC50 [µM]
WM1552C (melanoma, adherent, top dose 0.25 µM) | 0.722 | 0.0669
IGR-1 (melanoma, adherent, top dose 0.25 µM) | 0.679 | 
SUP-B15 (lymphoblastic leukaemia, suspension, top dose 0.25 µM) | 0.58 | 0.0256
SW1573 (lung adenocarcinoma, adherent, top dose 0.25 µM) | 0.764 | 0.122
VMRC-RCZ (kidney, adherent, top dose 0.25 µM) | 0.549 | 0.0217
647-V (bladder, adherent, top dose 0.25 µM) | 0.762 | 0.0899
NOMO-1 (acute myeloid leukaemia, suspension, top dose 0.25 µM) | 0.59 | 0.0285
TE-9 (oesophagus, adherent, top dose 0.25 µM) | 0.912 | > 0.25
KYAE-1 (oesophagus, suspension, top dose 0.25 µM) | 0.645 | 0.0413
OVMIU (ovary, adherent, top dose 0.25 µM) | 0.932 | > 0.25
NCI-H1435 (lung adenocarcinoma, semi-adherent, top dose 0.25 µM) | 0.938 | > 0.25
SK-OV-3 (ovary, adherent, top dose 0.25 µM) | 0.756 | 0.106
NCI-H2087 (lung adenocarcinoma, semi-adherent, top dose 0.25 µM) | 0.846 | 0.204
HCC1143 (breast, adherent, top dose 0.25 µM) | 0.806 | 0.194
NCI-H2085 (lung adenocarcinoma, adherent, top dose 0.25 µM) | 0.585 | 0.0272
QIMR-WIL (acute myeloid leukaemia, suspension, top dose 0.25 µM) | 0.801 | 0.118
JHH-2 (liver, adherent, top dose 0.25 µM) | 0.604 | 0.0309
ESO51 (oesophagus, semi-adherent, top dose 0.25 µM) | 0.69 | 0.0668
LNCaP-Clone-FGC (prostate, adherent, top dose 0.25 µM) | 0.638 | 0.0399
SF295 (glioma, adherent, top dose 0.25 µM) | 0.536 | 0.0198
KYSE-220 (oesophagus, adherent, top dose 0.25 µM) | 0.895 | > 0.25
PE/CA-PJ15 (head and neck, adherent, top dose 0.25 µM) | 0.612 | 0.0326
RCC-JF (kidney, adherent, top dose 0.25 µM) | 0.488 | 0.0145
BB30-HNC (head and neck, adherent, top dose 0.25 µM) | 0.597 | 0.0286
MES-SA (uterus, adherent, top dose 0.25 µM) | 0.682 | 0.0461
NCI-H2444 (non-small cell lung carcinoma, adherent, top dose 0.25 µM) | 0.829 | 0.186

Cell Line | AUC | IC50 [µM]
TK10 (kidney, adherent, top dose 0.25 µM) | 0.766 | 0.111
SBC-1 (small cell lung carcinoma, suspension, top dose 0.25 µM) | 0.81 | 0.125
DOHH-2 (B-cell lymphoma, suspension, top dose 0.25 µM) | 0.664 | 0.044
GAMG (glioma, adherent, top dose 0.25 µM) | 0.536 | 0.0197
LS-411N (large intestine, adherent, top dose 0.25 µM) | 0.788 | 0.137
NCI-H64 (small cell lung carcinoma, suspension, top dose 0.25 µM) | 0.918 | 0.203
SW982 (soft tissue, adherent, top dose 0.25 µM) | 0.682 | 0.0512
KM12 (large intestine, adherent, top dose 0.25 µM) | 0.838 | 0.191
SUP-T1 (T-cell lymphoblastic leukaemia, suspension, top dose 0.25 µM) | 0.799 | 0.107
MHH-ES-1 (Ewing sarcoma, adherent, top dose 0.25 µM) | 0.681 | 0.0496
KY821 (leukaemia, suspension, top dose 0.25 µM) | 0.878 | 0.199
LAMA-84 (chronic myeloid leukaemia, suspension, top dose 0.25 µM) | 0.577 | 0.0255
NCI-H1755 (lung adenocarcinoma, adherent, top dose 0.25 µM) | 0.791 | 0.133
LC-1-sq (lung squamous cell carcinoma, adherent, top dose 0.25 µM) | 0.917 | > 0.25
JVM-2 (lymphoid neoplasm, suspension, top dose 0.25 µM) | 0.663 | 0.0494
D-542MG (glioma, adherent, top dose 0.25 µM) | 0.729 | 0.0822
KMRC-1 (kidney, adherent, top dose 0.25 µM) | 0.686 | 0.0535
NCC010 (kidney, adherent, top dose 0.25 µM) | 0.717 | 0.0678
COLO-205 (large intestine, suspension, top dose 0.25 µM) | 0.71 | 0.0607
EMC-BAC-1 (lung adenocarcinoma, adherent, top dose 0.25 µM) | 0.772 | 0.11
P30-OHK (lymphoblastic leukaemia, suspension, top dose 0.25 µM) | 0.669 | 0.0421
JHU-029 (head and neck, adherent, top dose 0.25 µM) | 0.699 | 0.0651
SCC-9 (head and neck, adherent, top dose 0.25 µM) | 0.854 | > 0.25
BxPC-3 (pancreas, adherent, top dose 0.25 µM) | 0.722 | 0.0725
NCI-H2227 (small cell lung carcinoma, semi-adherent, top dose 0.25 µM) | 0.759 | 0.098
